Some of the results follow.
These sequences were tested on PfSIP2 AP2 domain 1 (GST-tagged) (assay: gcPBM binding intensity (ln(normalized median fluorescence intensity)); higher = stronger DNA binding).
How it was run: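 GST-tagged P. falciparum DNA-binding domains, expressed in E. coli (about 25 μg on average), were applied for 1 h to an Agilent 4 × 180k array of primer-extended double-stranded 36-bp intergenic genomic probes plus negative controls. The binding buffer was 1× PBS with 1% milk, 0.2 mg/ml BSA, 0.5% salmon testes DNA and 0.03% Triton X-100. Bound protein was detected with Alexa488 anti-GST antibody and scanned at 488 nm. Binding intensity is the highest Masliner-normalised natural-log median intensity across replicate spots of either probe orientation.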

Row | Sequence | gcPBM binding intensity (ln)
1 | TACAAAATGGGGAACACACACATATATATATATATA [CACACA_site3844] | 9.36
2 | AAATATTATAGCACCACACACTTATTTTATTTATAT [CACACA_site7133] | 7.88
3 | ATCATCTATGTTATTACACACGTTATGTTATTATAA [CACACA_site5502] | 6.96
4 | TTTAGATAATTCATTACACACATGTATATTTATATA [CACACA_site7602] | 6.95
5 | TTTTTTTTTTTTTTATGTACGAAAGAAAAGCACATA [XGTACX_site8261] | 7.16
6 | TAACGAATTTAAATTTGTACATATATAAATATATAA [XGTACX_site2168] | 6.92
7 | TATATATATAATATTGCACACAAAATTAAAAGTAAA [CACACA_site7889] | 8.02
8 | AAAAAAAAAAAATGTGTGCACATTATTTCAACTTAA | 8.69
9 | TATTTTATCTATTTGTGTACTTATATTTATGCAAAA [XGTACX_site1499] | 7.25
10 | AAATTATTAAAAAAAAGTACATATATATATATATAT [XGTACX_site8313] | 9.76
11 | ATAAATAATATATATACACACATATCTATACATATT [CACACA_site487] | 7.05
12 | ATAATACACGATTATTTTCCCTTTATGTAAATATAT [CACACA_negctrl_site1107] | 6.8
13 | AAAAAAAATTAATTAGTGCAAAATATATACAAAATA [GTGCAC_site9762] | 7.93
14 | TAAGAAAATATTTATGTATGCATGTCCTAATATTTC [TGCATGCA_site295] | 7.28
15 | ATATAAAATATTAGTAGTACCATTAACAGTATTGTT [XGTACX_site5912] | 6.93
16 | ATTAAGATGTATATATGTACATATTACATACATATA [XGTACX_site8657] | 7.11
17 | TATGAAAAAAAAAATACACACACGAGTTGTTATACA [CACACA_site3188] | 6.74
18 | AATGAAATATGGATGGGTACACATTTGATTTTATTA [XGTACX_site6155] | 6.78
19 | ATATATATAAACATATGTACACATATATATAATACA [XGTACX_site1848] | 7.66
20 | TGTATGTATAGAAACACACATACATATATATAATAT [CACACA_site1405] | 6.92
21 | ATTTGTTTATAGGCCATAAAATATTTAATTCATTTG [CACACA_negctrl_site1824] | 6.81
22 | AGTATTATATTTGTATGTACGTAGTAATATATAAAA [XGTACX_site528] | 7.06

Row | Sequence | gcPBM binding intensity (ln)
23 | TTTTTCATAAATATATGTACATATATTTTATATAAC [XGTACX_site3402] | 7.08
24 | ATTTATATTTATGATACACACACGTATATTCACATA [CACACA_site460] | 7.07
25 | AACAAGAAAAAAAAAAAAAAAAAAAAAAAATATTTT [XGTACX_negctrl_site428] | 6.71
26 | ATATATATATTTTTATGAGGCATAAGTAATATTTTT [TGCATGCA_negctrl_site317] | 8.34
27 | AATGTAATATAAATATGTACATAATATATATAATTA [XGTACX_site4762] | 6.87
28 | TTTTTATTTTTTTAGTATACGTACTAGGTTTGTTCT [XGTACX_site645] | 7.03
29 | ATATATTTATATATATGTACTTAAAACATTTCGATG [XGTACX_site328] | 6.86
30 | CATAAACTTTTTAACACACACTTATATATATATATA [CACACA_site4747] | 9.18
31 | TAATTTTTATGAAGAAGTACAAAATCTACTATCATA [XGTACX_site4985] | 6.77
32 | CTAAATAAAGTTAACACACACATAATATATATATGT [CACACA_site486] | 7.02
33 | AAAAATTCTTTTTCATCTATATGCAGAAAGAAAAAG [CACACA_negctrl_site1201] | 6.8
34 | TACATCTGTAATGTGTGTACATATATGTATATATTT [XGTACX_site1805] | 7.06
35 | GAATTTATGAACTGTGCATGTAAAAAAAACAACAAA [TGCATGCA_site449] | 8.15
36 | TATAATAATATATATTGTACACACAAAATGGGAAAA [XGTACX_site3911] | 7.37
37 | TATATGAAGCTATAGACACACATATAAAAATATAAT [CACACA_site4850] | 6.83
38 | ATATAAAAAAAAGATGAAAAAAAAAATGAAAGAAAG [CACACA_negctrl_site1266] | 7
39 | ATATATATAATATGATGTACATATTTATTTATATAT [XGTACX_site7333] | 7.53
40 | AATGAAATAAAATAAAGTACATATATGTAAAAGTAG [XGTACX_site5650] | 7.6
41 | TTTTTTTTTTTTTACACACACAAAATATTATCTGTA [CACACA_site5378] | 7.01
42 | AATTGAAAAGAATGAAGTACACATTTGATGATACAT [XGTACX_site5182] | 6.87
43 | GAATGCCTTGAAAATAGTACAATTAAGAAAAAATAC [XGTACX_site8002] | 7.48
44 | TAAATAAATTTATACACACACACACCGATATATATA [CACACA_site4622] | 7.48

Row | Sequence | gcPBM binding intensity (ln)
45 | AATAAAAGATCATTTATTCTTTTTTTTCTTTTTAAA [CACACA_negctrl_site1256] | 6.7
46 | AAAATACATAAACGTTCACACATTTAAGATAACGAG [CACACA_site5345] | 6.79
47 | TGAATAAATATATATACACACATATATGTATATATT [CACACA_site1642] | 6.72
48 | TATATATATAATATATGTACATATTAATTATGTATA [XGTACX_site5366] | 8.1
49 | GAGTTTACACTCCCTTGTACATATTCATTTTTATTC [XGTACX_site5208] | 7.13
50 | TTTTATTTTATAAAAATAAAAAAAAAATTATTACAA [TGCATGCA_negctrl_site508] | 6.68
51 | TGAAAATAGTTAATTTGTACACAAAAATTAAGAAAA [XGTACX_site5794] | 7.01
52 | AATTAAATAAATGTATGTACATAATAAATATGTATT [XGTACX_site4379] | 6.96
53 | TTTTCGATGTTGGTAGGATGTATGGTACACGTAGTA [TGCATGCA_negctrl_site61] | 7.15
54 | AAAGAAATATATACAAAAATATGAACAATTTATTAT [XGTACX_negctrl_site78] | 6.81
55 | TATGAAAATATATATTGTACAGAATCTATAAAAAAT [XGTACX_site8030] | 6.89
56 | GAAAATTTTTGGTGTACACAAAAAAATCCAAAAAAA [CACACA_site5042] | 7.58
57 | TATGATTGTTTACGTTGTACAGCTGAATTGTTCTTA [XGTACX_site8114] | 6.83
58 | GATAAAATGGATGGATGTACATTATTTCCATATAAT [XGTACX_site7781] | 6.95
59 | ATATTACTTCCTAAGTGTACAAGTAAGGAGAAAAAA [XGTACX_site3921] | 7.18
60 | AGATGTTTTTATATATGTACTTAAATACACAAATAT [XGTACX_site8250] | 7.35
61 | AAAAAAAAAAAAAACACACACACAAAATAAACAAAC [CACACA_site2720] | 7.46
62 | TGATAATTTTTTACATGTACAAGTTTGTTTTTGCAT [XGTACX_site125] | 6.96
63 | TTATCGGTATAATATAGTACATATAGATATATAATA [XGTACX_site1440] | 6.97
64 | ATAATGGAGAAATAAGCATGCATTATATTATAAAAA [TGCATGCA_site325] | 6.58
65 | TAAAAGTTAATATAAACACACAAAAATTAATAAATA [CACACA_site6316] | 6.89
66 | AATTTCTATTTTGTGAGTACATACTCCTATTATATA [XGTACX_site3210] | 7.31

Row | Sequence | gcPBM binding intensity (ln)
67 | TGAATATTTCTATATACACACATATAAATATAAATA [CACACA_site7593] | 6.84
68 | AAAAAAAAAAAAATGTAATTTTTTAATTATTTATAT [GTGCAC_negctrl_site436] | 6.94
69 | CATATATTTTTGTATAGTACTTTTTTTATTCGTTTT [XGTACX_site1860] | 7.11
70 | TATTTTATCATTTGCACACGCACACCGACATAAAAA [CACACA_site4348] | 7.71
71 | CATCTAAATTGTAGTTGTACACCTTAATCTTATTAC [XGTACX_site7547] | 7.23
72 | ACTCTCTTATATTAAACACACATATTTATAGGTATA [CACACA_site7302] | 7.41
73 | ATTTTAGAATAAATTTTTTACATTAAAAAACTATTT [CACACA_negctrl_site1414] | 6.7
74 | GTATCAAAAGAATACACACACACATACATATATATA [CACACA_site3796] | 7.53
75 | CATACAATAAATATGGTGCATTTTATGTAACCGTTT [GTGCAC_site9420] | 10.4
76 | AAGGATATAACATACACACACACACGGATATAAATA [CACACA_site7867] | 7.06
77 | TGAACATATTAAAATTGTACATATGCACAATATGTA [XGTACX_site6801] | 7.44
78 | TGAAAAATAAATAAATGTACATATATATATATATAC [XGTACX_site7310] | 7.3
79 | AGAAATACAAAATAAATATAAGAAACAAAATATTTA [CACACA_negctrl_site780] | 6.78
80 | AAAAGGTTATCAATATGTACATATTTTTTTATTTTT [XGTACX_site3277] | 6.96
81 | TTTTAATTAAAACACACACACACATATATATATATA [CACACA_site2291] | 9.62
82 | TATTTCATCATATTGTGTACTTAATTTATATAATTA [XGTACX_site5753] | 7.25
83 | ATAAAAATATGATCAACACACGATTAAATATTCATA [CACACA_site1495] | 6.75
84 | ATTTATTCATTTGGGTGTACTATTTAAAAAAAACAA [XGTACX_site498] | 7.72
85 | TATTTATATTTTAACACACACATATTTATATTTATA [CACACA_site7324] | 7.02
86 | TATATATAATTTTATACATGCACATATTATATATAT [TGCATGCA_site1036] | 7.87
87 | TATATTTTTTAAACCACACACAATATAGAGTATAAT [CACACA_site4510] | 7.16
88 | TATAAATAAAGACACACACACATATAAATAAATATA [CACACA_site7155] | 7.01
